Results published in article PMC11700182.
Results are given in words; binding and its absence hold for the method and conditions named. Binding seen in cells or lysates may run through a third protein. Some entries that bind do so weakly or less than the wild type. Each block holds one molecule with its values, some of them ahead of it.

By UniProt entry, the sequences of proteins in these tests, tags left out.
UniProt P70335: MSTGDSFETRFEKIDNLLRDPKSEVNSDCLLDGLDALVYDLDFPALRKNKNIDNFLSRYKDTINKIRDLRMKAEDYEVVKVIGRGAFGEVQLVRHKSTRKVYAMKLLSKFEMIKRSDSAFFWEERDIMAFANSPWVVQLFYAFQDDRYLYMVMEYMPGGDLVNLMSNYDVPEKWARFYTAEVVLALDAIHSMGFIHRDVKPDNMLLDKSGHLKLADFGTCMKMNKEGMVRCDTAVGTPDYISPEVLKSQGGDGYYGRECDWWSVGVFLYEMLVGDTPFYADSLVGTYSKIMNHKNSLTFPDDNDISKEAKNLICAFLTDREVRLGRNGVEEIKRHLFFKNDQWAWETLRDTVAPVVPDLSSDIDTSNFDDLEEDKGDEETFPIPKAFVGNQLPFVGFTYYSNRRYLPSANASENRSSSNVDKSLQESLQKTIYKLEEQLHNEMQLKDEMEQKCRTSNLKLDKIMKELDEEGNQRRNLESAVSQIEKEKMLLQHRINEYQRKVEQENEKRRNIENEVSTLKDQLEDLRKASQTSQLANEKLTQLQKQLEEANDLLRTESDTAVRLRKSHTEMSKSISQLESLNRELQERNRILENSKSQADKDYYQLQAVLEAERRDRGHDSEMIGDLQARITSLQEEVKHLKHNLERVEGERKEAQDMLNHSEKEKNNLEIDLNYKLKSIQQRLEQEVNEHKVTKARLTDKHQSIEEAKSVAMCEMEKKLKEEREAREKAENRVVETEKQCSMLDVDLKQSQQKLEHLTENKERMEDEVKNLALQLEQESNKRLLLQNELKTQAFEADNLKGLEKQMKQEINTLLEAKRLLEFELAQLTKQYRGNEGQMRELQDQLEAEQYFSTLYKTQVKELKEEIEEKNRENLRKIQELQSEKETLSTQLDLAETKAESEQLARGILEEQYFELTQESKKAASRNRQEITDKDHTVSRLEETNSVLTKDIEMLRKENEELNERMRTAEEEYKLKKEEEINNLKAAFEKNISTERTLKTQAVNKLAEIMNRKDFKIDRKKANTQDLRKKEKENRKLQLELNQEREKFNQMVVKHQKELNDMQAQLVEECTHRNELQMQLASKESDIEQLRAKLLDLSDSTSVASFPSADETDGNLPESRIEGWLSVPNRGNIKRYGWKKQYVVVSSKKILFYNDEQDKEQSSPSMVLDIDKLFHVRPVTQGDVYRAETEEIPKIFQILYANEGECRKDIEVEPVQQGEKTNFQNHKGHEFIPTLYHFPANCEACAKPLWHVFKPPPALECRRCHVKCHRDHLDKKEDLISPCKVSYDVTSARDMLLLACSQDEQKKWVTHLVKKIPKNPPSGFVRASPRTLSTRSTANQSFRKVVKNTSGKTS
UniProt Q8K1M6: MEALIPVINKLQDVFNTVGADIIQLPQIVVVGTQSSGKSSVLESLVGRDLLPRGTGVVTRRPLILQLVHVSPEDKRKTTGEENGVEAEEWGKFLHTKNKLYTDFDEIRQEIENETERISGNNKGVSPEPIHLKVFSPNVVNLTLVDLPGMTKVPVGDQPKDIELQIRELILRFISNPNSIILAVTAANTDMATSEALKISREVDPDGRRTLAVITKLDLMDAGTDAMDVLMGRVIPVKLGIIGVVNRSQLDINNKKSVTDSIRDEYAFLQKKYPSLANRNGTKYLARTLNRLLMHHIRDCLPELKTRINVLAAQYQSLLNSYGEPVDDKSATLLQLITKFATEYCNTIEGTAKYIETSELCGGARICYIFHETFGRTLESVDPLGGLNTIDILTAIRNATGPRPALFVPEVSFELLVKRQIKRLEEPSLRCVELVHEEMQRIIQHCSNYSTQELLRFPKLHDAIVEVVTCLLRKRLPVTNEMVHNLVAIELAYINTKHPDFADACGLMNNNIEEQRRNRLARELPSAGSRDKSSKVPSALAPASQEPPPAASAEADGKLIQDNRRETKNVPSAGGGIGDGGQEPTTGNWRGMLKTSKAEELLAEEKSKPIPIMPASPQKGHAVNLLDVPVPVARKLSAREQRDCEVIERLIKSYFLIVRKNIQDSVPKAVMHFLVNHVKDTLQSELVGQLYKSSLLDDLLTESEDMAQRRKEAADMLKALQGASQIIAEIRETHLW

Columns and labels:
[1] = target: T1, Rnd3 (a Rho family GTPase 3) (mouse (endogenous in neonatal mouse cardiomyocytes and mouse heart)) (UniProt P61588); assay: co-IP; mouse heart (cardiac) tissue lysates; IP-Western blot for Rnd3, Rock1 and Drp1
T1 sequence: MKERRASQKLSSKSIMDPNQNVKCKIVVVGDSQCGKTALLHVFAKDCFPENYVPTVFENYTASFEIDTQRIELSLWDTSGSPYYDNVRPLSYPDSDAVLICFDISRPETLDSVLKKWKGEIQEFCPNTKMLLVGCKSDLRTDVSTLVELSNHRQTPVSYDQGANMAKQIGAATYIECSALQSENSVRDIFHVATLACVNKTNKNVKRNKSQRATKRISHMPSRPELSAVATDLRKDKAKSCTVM

[2] = target: T1, Rnd3 (a Rho family GTPase 3) (mouse (endogenous in neonatal mouse cardiomyocytes and mouse heart)); assay: co-IP; cytoplasmic fraction of cardiomyocytes (differential centrifugation, mitochondria isolation kit); IP-Western blot
[3] = target: T1, Rnd3 (a Rho family GTPase 3) (mouse (endogenous in neonatal mouse cardiomyocytes and mouse heart)); assay: co-IP; lysates of primary mouse cardiomyocytes (500 ug protein) with 5 ug Rnd3 or Rock1 antibody or isotype IgG overnight at 4 °C; protein A/G magnetic beads; Western blot with Rnd3 and Rock1 antibodies
[4] = target: T1, Rnd3 (a Rho family GTPase 3) (mouse (endogenous in neonatal mouse cardiomyocytes and mouse heart)); assay: condition: only in the mitochondrial fraction isolated from cardiomyocytes; co-IP; mitochondrial fraction isolated from cardiomyocytes (differential centrifugation, mitochondria isolation kit); IP-Western blot
[5] = target: Rho-associated kinase 1 (Rock1) (mouse (endogenous in neonatal mouse cardiomyocytes and mouse heart)) (UniProt P70335); assay: co-IP; mouse heart (cardiac) tissue lysates; IP-Western blot for Rnd3, Rock1 and Drp1
[6] = target: Rho-associated kinase 1 (Rock1) (mouse (endogenous in neonatal mouse cardiomyocytes and mouse heart)) (UniProt P70335); assay: co-IP; lysates of primary mouse cardiomyocytes (500 ug protein) with 5 ug Rnd3 or Rock1 antibody or isotype IgG overnight at 4 °C; protein A/G magnetic beads; Western blot with Rnd3 and Rock1 antibodies

binding [1]: binds
binding [2]: binds
binding [3]: binds
binding [4]: no binding
Molecule: Rho-associated kinase 1 (Rock1) (from UniProt P70335 1-1354) (enzyme)

binding [5]: binds
binding [1]: binds
Molecule: dynamin-related protein 1 (Drp1) (from UniProt Q8K1M6 1-736)

binding [6]: binds
B1: Rnd3 (a Rho family GTPase 3) (protein, UniProt P61588 1-244)
chain: T1 sequence
